{
  "source": "the supplement of paper PMC11417369",
  "note": "± gives the standard deviation of the averaged measurements. The list shows a part of the results.",
  "data": [
    {"tested_on": "PfAP2-I AP2 domain 3 (GST-tagged)", "experiment": "gcPBM binding intensity (ln(normalized median fluorescence intensity)); higher = stronger DNA binding", "summary_of_the_method": "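The binding buffer was 1× PBS containing 1% milk, 0.2 mg/ml BSA, 0.5% salmon testes DNA and 0.03% Triton X-100. In it, GST-tagged P. falciparum DNA-binding domains expressed in E. coli were applied for 1 h to an Agilent 4 × 180k array of primer-extended double-stranded 36-bp intergenic genomic probes plus negative controls. Binding intensity, read with Alexa488 anti-GST antibody and a 488 nm scan, is the highest Masliner-normalised natural-log median intensity across replicate spots of either probe orientation.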", "values": [
      {"sequence": "GATAATAATAAACAACCACACACAAAAAAACAAAAA [CACACA_site9074]", "gcPBM binding intensity (ln)": "7.94 ± 0.49"},
      {"sequence": "TTCAAATTTCCACATACACACCTTGTAGATCTATAT [CACACA_site6270]", "gcPBM binding intensity (ln)": "8.04 ± 0.54"},
      {"sequence": "CAATGTTGTACATACACACACACAAAAAAAAAATAA [CACACA_site2407]", "gcPBM binding intensity (ln)": "8.11 ± 0.11"},
      {"sequence": "ATAAAAAAACACACTCGTACACACATATTTTCTTTC [XGTACX_site6565]", "gcPBM binding intensity (ln)": "8.07 ± 0.45"},
      {"sequence": "AAAAAAAAAAAAAAAAAAAAAAAAAAAAAAACATAT [GTGCAC_negctrl_site580]", "gcPBM binding intensity (ln)": "10.2 ± 0.23"},
      {"sequence": "ATGAATAATTAATGATGTACTTAAAAAAAAAAATAT [XGTACX_site6346]", "gcPBM binding intensity (ln)": "7.88 ± 0.55"},
      {"sequence": "ATATATTATATTGAATGTACATATATATATTATATA [XGTACX_site8445]", "gcPBM binding intensity (ln)": "7.74 ± 0.14"},
      {"sequence": "GTTAATATCTTGAACAGTACTCTAAATATCTACATA [XGTACX_site5358]", "gcPBM binding intensity (ln)": "7.68 ± 0.53"},
      {"sequence": "TTACAATAAATTATAGTGCAATATTTTATTTAATAT", "gcPBM binding intensity (ln)": "10.6 ± 0.36"},
      {"sequence": "TAGCCCATATGGAATACACACTGAAAATAAAAAAAG [CACACA_site5799]", "gcPBM binding intensity (ln)": "7.83 ± 0.76"},
      {"sequence": "GAAATTTTATTTCGGCGGACAAATGTATACTTTCTT [XGTACX_site4238]", "gcPBM binding intensity (ln)": "7.66 ± 0.61"},
      {"sequence": "AAAATATATATAAATGCATGCATAATGAAATATATA [TGCATGCA_site39]", "gcPBM binding intensity (ln)": "7.94 ± 0.76"},
      {"sequence": "TTTTAAAAAACAAACACACACGTAGAAAAAAAAAAA [CACACA_site4608]", "gcPBM binding intensity (ln)": "8.21 ± 0.71"},
      {"sequence": "CTGTATAAAACCAATGCATGTAAATATATTAATATA [TGCATGCA_site511]", "gcPBM binding intensity (ln)": "7.96 ± 0.35"},
      {"sequence": "GAGAAGACATTACACAGTACCCAGTAACTCTACGGA [XGTACX_site2000]", "gcPBM binding intensity (ln)": "7.54 ± 0.47"},
      {"sequence": "AAATTGGGGCTTGTTACACACTTAGTGCGAGTTCTA [CACACA_site582]", "gcPBM binding intensity (ln)": "8.22 ± 0.33"},
      {"sequence": "GATTATTATGTCCATGCATGTTAATATATATTAATT [TGCATGCA_site837]", "gcPBM binding intensity (ln)": "8.19 ± 0.7"},
      {"sequence": "ATACATCAAGGACACACACACACACGCACACGCACA [CACACA_site6310]", "gcPBM binding intensity (ln)": "8.34 ± 0.56"},
      {"sequence": "TTATGATGGTCTTTATAAGGGCACATTAAATTCGGC [TGCATGCA_negctrl_site166]", "gcPBM binding intensity (ln)": "8.34 ± 0.43"},
      {"sequence": "AAACTATTCACTATAATACATTAGAAGTGAATAAAA [TGCATGCA_negctrl_site498]", "gcPBM binding intensity (ln)": "7.56 ± 0.41"},
      {"sequence": "TGAAAAGGAAATTGTTGTACATATGTTTCTTCCTAA [XGTACX_site3932]", "gcPBM binding intensity (ln)": "7.55 ± 0.44"},
      {"sequence": "AATAGCAATTTGGGGTGTACACACACCTTATTTAAA [XGTACX_site2234]", "gcPBM binding intensity (ln)": "8.04 ± 0.23"},
      {"sequence": "TATATATAAATATTCAGTACATAGTGCTATTAAGTG [XGTACX_site1979]", "gcPBM binding intensity (ln)": "9.16 ± 0.057"},
      {"sequence": "CCATTATATCTAAGTACACACATTAATTTTTTTTTT [CACACA_site6115]", "gcPBM binding intensity (ln)": "8.05 ± 0.34"},
      {"sequence": "AGAAATTAATCGAGGTGTACGTACATCCAAATATAT [XGTACX_site7650]", "gcPBM binding intensity (ln)": "8.18 ± 0.32"},
      {"sequence": "ATATATTTAACAAGATGTACAATTTTATAAAAAATA [XGTACX_site2351]", "gcPBM binding intensity (ln)": "7.7 ± 0.35"},
      {"sequence": "TTTTTATAAAAAAATAGTACTCGTCTAATCTTATGT [XGTACX_site8532]", "gcPBM binding intensity (ln)": "7.79 ± 0.46"},
      {"sequence": "TATATATATATATATACACACAAAAAAATAAATTCT [CACACA_site98]", "gcPBM binding intensity (ln)": "9.44 ± 0.18"},
      {"sequence": "ATTTATTTTAATAATTGTACATGTTATTTTATATAT [XGTACX_site2667]", "gcPBM binding intensity (ln)": "7.68 ± 0.33"},
      {"sequence": "TACTTTTCATCTTCTTAACACACAAAAAAAAAAAAA [CACACA_site9290]", "gcPBM binding intensity (ln)": "8.05 ± 0.38"},
      {"sequence": "ATCATTTTTAAAGGAACACACAAAAAAAGTTATAAT [CACACA_site6761]", "gcPBM binding intensity (ln)": "7.89 ± 0.76"},
      {"sequence": "ATATATTATTATAACTGTACTTTTTTTGTGGTTAAT [XGTACX_site8266]", "gcPBM binding intensity (ln)": "8.14 ± 0.28"},
      {"sequence": "TATGCGTATATATAAATACACACCAAATGTTAATAT [CACACA_site1713]", "gcPBM binding intensity (ln)": "8.2 ± 0.76"},
      {"sequence": "CCATTTACATTGTGAAGTACTAAAAAAAAATGTAGA [XGTACX_site7882]", "gcPBM binding intensity (ln)": "7.94 ± 0.62"},
      {"sequence": "ACAAGGAATATAAAAAGTACATAAAATACATAAAAA [XGTACX_site1217]", "gcPBM binding intensity (ln)": "7.91 ± 0.74"},
      {"sequence": "ATATAAATATAAATATATATGTATAAATATAAATAT [CACACA_negctrl_site247]", "gcPBM binding intensity (ln)": "7.37 ± 0.44"},
      {"sequence": "TATGGATGTATTCATACATGCACACGTACATATTTA [TGCATGCA_site991]", "gcPBM binding intensity (ln)": "8.31 ± 0.25"},
      {"sequence": "ATAATTTGATGGTTAACACACATATATATTATATAT [CACACA_site2449]", "gcPBM binding intensity (ln)": "7.88 ± 0.69"},
      {"sequence": "TAAAAAATGTTATATACACACAGTATAAAAAAAAAT [CACACA_site7808]", "gcPBM binding intensity (ln)": "7.77 ± 0.73"},
      {"sequence": "CCACGTATAATATGTACACACACATAAATACAAAAA [CACACA_site4660]", "gcPBM binding intensity (ln)": "8.28 ± 0.028"},
      {"sequence": "AATTAAATTATAAGCACACACATATATATATATATA [CACACA_site3351]", "gcPBM binding intensity (ln)": "9.39 ± 0.49"},
      {"sequence": "CTTATTTCCTTTTGTAGTACCTTATAATATATATAA [XGTACX_site8873]", "gcPBM binding intensity (ln)": "8.28 ± 0.48"},
      {"sequence": "GGGAAGTAGTAGTAATGTACTTATTTATTATGTGAC [XGTACX_site3985]", "gcPBM binding intensity (ln)": "7.97 ± 0.56"},
      {"sequence": "TTATATATTTTTTGCACACCAAAAAAGAGAATATTC [CACACA_site2730]", "gcPBM binding intensity (ln)": "9.525 ± 0.021"},
      {"sequence": "TTCTATTTGTAAAATTGTACAAAATAAATAACAAAA [XGTACX_site1007]", "gcPBM binding intensity (ln)": "7.84 ± 0.43"},
      {"sequence": "TAATAATAGTACTCACATCAAAGTATTATTAAAAAT [TGCATGCA_negctrl_site496]", "gcPBM binding intensity (ln)": "7.83 ± 0.34"},
      {"sequence": "GCATTTCTACTAAAAATACACACGATGATACAACGA [CACACA_site1756]", "gcPBM binding intensity (ln)": "7.74 ± 0.64"},
      {"sequence": "TATAAATATAAATACACACACATATATATTATATAT [CACACA_site4496]", "gcPBM binding intensity (ln)": "7.59 ± 0.38"},
      {"sequence": "ATATATATATATATGTGTACATAATAACTTTGCTTA [XGTACX_site1255]", "gcPBM binding intensity (ln)": "9.32 ± 0.34"},
      {"sequence": "ACCTATTTCAAACACACACACACACTAGCAAACATA [CACACA_site4695]", "gcPBM binding intensity (ln)": "8.38 ± 0.42"},
      {"sequence": "TATATATATATATGTTGTACATATTTAAATGTTTAT [XGTACX_site5437]", "gcPBM binding intensity (ln)": "9.39 ± 0.39"},
      {"sequence": "ACAAAAAAGTAAAAAGTGCATGTAAAATATAAGTAT [GTGCAC_site9438]", "gcPBM binding intensity (ln)": "9.52 ± 0.4"},
      {"sequence": "AATAAATCTTTTTGTTGTACTAAAAATATTATTAGC [XGTACX_site3335]", "gcPBM binding intensity (ln)": "7.62 ± 0.22"},
      {"sequence": "TTAATATATTATATTTGTACATATATATATATACAA [XGTACX_site4798]", "gcPBM binding intensity (ln)": "7.57 ± 0.3"},
      {"sequence": "AAATTGTGTTCATCAGCACACACAACATCATGTAAT [CACACA_site8556]", "gcPBM binding intensity (ln)": "7.84 ± 0.64"},
      {"sequence": "CGAAAGAAAAAAAGCACACACAGTTTTGAGCAATGA [CACACA_site2109]", "gcPBM binding intensity (ln)": "7.59 ± 0.93"},
      {"sequence": "ACACATATGACAAATAGTACATAAATATATAAATAT [XGTACX_site7141]", "gcPBM binding intensity (ln)": "7.79 ± 0.28"}
    ]}
  ]
}
